Counter-ions that a name gives are not always drawn. The full ranking holds about 2,800 compounds; the median of “cell viability relative to vehicle” is about 0.98, and the lowest 2% start at about 0.45. This is one part of the list.
Each compound was assayed on NCI-H2228 alectinib-DTP (assay: cell viability relative to vehicle (fraction of vehicle); NCI-H2228 is an ALK-positive lung cancer line and DTP means drug-tolerant persister; higher = less growth inhibition). Conditions: 100 nM; treatment time 6 days.
In short: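 Values give cell viability as a fraction of vehicle-treated cells. Parental and drug-tolerant persister NCI-H2228 cells (persisters made with 1000 nM of a targeted drug for 13 days) were exposed in 384-well plates to the 3114-agent TargetMol anti-cancer compound library at 100 nM, with DMSO as vehicle. ATP was then read after 6 days by the CellTiter-Glo 3D Cell Viability Assay.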

Structure (SMILES)	cell viability
Nc1n[nH]c2cc(-c3ccc(=O)n(Cc4cccc(Cl)c4)c3)ccc12	0.954
O=C(Nc1cccc(Cl)c1)Nc1ncc(CCNc2ncnc3ccsc23)s1 [SNS-314 Mesylate]	0.867
CNC(=O)c1ccc(N2C(=S)N(c3cnc(C#N)c(C(F)(F)F)c3)C(=O)C23CCC3)cc1F [Apalutamide]	0.79
CCOC(=O)c1c(C)[nH]c(C=C2C(=O)Nc3ccccc32)c1C [VEGFR2 Kinase Inhibitor I]	1.19
O=C(c1ccc(OCCN2CCCCC2)cc1)c1c(-c2ccc(O)cc2)sc2cc(O)ccc12 [Raloxifene hydrochloride]	0.92
O=C1c2ccccc2-c2n[nH]c3cccc1c23 [Pyrazolanthrone]	1
CO[C@H]1CC[C@H](N2C(=O)CNc3ncc(-c4ccc(C(C)(C)O)nc4)nc32)CC1	0.9
C[C@@]12CC[C@@H]3[C@@](CC[C@H]4[C@@]3(C)CCC[C@@]4(C)C(=O)O)(CC1=O)C2 [Isosteviol]	1.03
NS(=O)(=O)c1cc2c(cc1C(F)(F)F)NC(Cc1ccccc1)NS2(=O)=O (stereo not given) [Bendroflumethiazide]	0.992
COc1cc(C[C@H]2C(=O)OC[C@@H]2Cc2ccc(OC)c(OC)c2)ccc1O [Arctigenin]	0.985
CN(C)[C@@H]1CCc2[nH]c3ccc(NC(=O)c4ccc(F)cc4)cc3c2C1	1.12
CNC(=O)c1ccccc1Sc1ccc2c(/C=C/c3ccccn3)n[nH]c2c1 [Axitinib]	1.04
Cc1ccc(NC(=O)Nc2cc(C(F)(F)F)ccc2F)cc1Nc1ccc2c(c1)NC(=O)/C2=C\c1ccc[nH]1	0.945
C[C@H]1CNC(=O)c2cnn3ccc(nc23)N[C@H](C)c2cc(F)ccc2O1	0.904
CC(CN1c2ccccc2Sc2ccccc21)N(C)C (stereo not given) [Promethazine]	1.18
CC(CN1c2ccccc2Sc2ccccc21)N(C)C (stereo not given) [Promethazine hydrochloride]	0.988
FC(F)(F)c1ccccc1-c1nc(NCc2cccs2)c2ccccc2n1	0.951
COC1(c2sc3c(N4CCOCC4)nc(-c4cnc(N)nc4)nc3c2C)COC1	0.496
CCn1cc(C(=O)O)c(=O)c2cc(F)c(N3CCNCC3)cc21 [Norfloxacin]	0.991
COc1cccc(OCCCN)c1-c1cc(Nc2cnc(C#N)cn2)n[nH]1 [Prexasertib dihydrochloride]	0.602
Fc1ccc(-n2cc(CCCCN3CCC4(CC3)OCc3ccccc34)c3ccccc32)cc1 [Siramesine hydrochloride]	1.05
COc1cc(N)c(Cl)cc1C(=O)NC1CCN(CCCOc2ccc(F)cc2)CC1OC (stereo not given) [Cisapride]	1.03
CN(C)CCC(c1ccc(Cl)cc1)c1ccccn1 (stereo not given) [Chlorpheniramine maleate]	0.927
CC(C)=CC[C@@H](OC(=O)C=C(C)C)C1=CC(=O)c2c(O)ccc(O)c2C1=O [Dimethylacrylshikonin]	1.02
N=C1S/C(=C\c2ccc(-c3ccc4c(c3)C(=O)NC4=O)o2)C(=O)N1c1ccc(Br)cc1 [Bioymifi]	1.05

Structure (SMILES)	cell viability
COc1ccc(-c2coc3cc(O)cc(O)c3c2=O)cc1 [Biochanin A]	1.15
O=S(=O)(NCCNC/C=C/c1ccc(Br)cc1)c1cccc2cnccc12	0.981
NS(=O)(=O)NCCNc1nonc1/C(=N/O)Nc1ccc(F)c(Br)c1 [Epacadostat]	1.06
Oc1cccc(O)c1O [Pyrogallol]	1.13
COC1=CC(=O)C[C@@H](C)[C@]12Oc1c(Cl)c(OC)cc(OC)c1C2=O [Griseofulvin]	0.912
CCC(=O)NCC[C@@H]1CCc2ccc3c(c21)CCO3 [Ramelteon]	0.857
CC(C)=CCC[C@](C)(O[C@@H]1O[C@H](CO[C@@H]2O[C@H](CO)[C@@H](O)[C@H](O)[C@H]2O)[C@@H](O)[C@H](O)[C@H]1O)[C@H]1CC[C@]2(C)[C@@H]1[C@H](O)C[C@@H]1[C@@]3(C)CC[C@H](O[C@@H]4O[C@H](CO)[C@@H](O)[C@H](O)[C@H]4O)C(C)(C)[C@@H]3CC[C@]12C [Gypenoside XVII]	0.992
CC(C)(C)c1cc(/C=C(\C#N)C(N)=S)cc(C(C)(C)C)c1O [Tyrphostin AG 879]	1.09
CC[C@H](Nc1ncnc2[nH]cnc12)c1nc2cccc(F)c2c(=O)n1-c1ccccc1 [Idelalisib]	1
COc1cc2c[n+](C)c3c4cc5c(cc4ccc3c2cc1OC)OCO5 [Nitidine chloride]	1.05
O=CN1CC/C(=C/c2ccc3c(c2)OCO3)C1=O	0.979
NCCC(=O)O [beta-Alanine]	1.09
CC(C)c1noc(N2CCC(COc3ccc(-c4ccc(S(C)(=O)=O)cc4)nc3)CC2)n1	0.874
O=C(NC1CCNCC1)c1n[nH]cc1NC(=O)c1c(Cl)cccc1Cl	1.14
COC[C@@H](c1ccc(C(F)(F)F)cc1)N1CCN(C2(C)CCN(C(=O)c3c(C)ncnc3C)CC2)C[C@@H]1C [Vicriviroc maleate]	1.13
CCCC(CCC)C(=O)O [Valproic acid sodium salt]	0.747
CN(C)[C@@H](CCOc1cccc2ccccc12)c1ccccc1 [Dapoxetine HCl]	1.25
CO[C@H]1C[C@@H]2CC[C@@H](C)[C@@](O)(O2)C(=O)C(=O)N2CCCC[C@H]2C(=O)O[C@H]([C@H](C)C[C@@H]2CC[C@@H](OP(C)(C)=O)[C@H](OC)C2)CC(=O)[C@H](C)/C=C(\C)[C@@H](O)[C@@H](OC)C(=O)[C@H](C)C[C@H](C)/C=C/C=C/C=C/1C [Ridaforolimus]	0.918
CCCCC[C@H](O)CC(=O)CCc1ccc(O)c(OC)c1 [6-Gingerol]	0.904
CC(C)(C)NCC(O)c1ccc(O)c(CO)c1 (stereo not given) [Salbutamol]	0.987
CCS(=O)(=O)N1CCC([C@@H](C)n2c(C)c(C(=O)NCc3c(OC)cc(C)[nH]c3=O)c3ccccc32)CC1	1.1
Fc1ccc(CNc2ncnc3ccc(F)cc23)cc1 [Spautin-1]	1.17
O=S(=O)(N=Cc1c(O)ccc2ccccc12)c1cccs1	1.01
CC[C@@H]1C(=O)N(C)c2cnc(Nc3ccc(C(=O)NC4CCN(C)CC4)cc3OC)nc2N1C1CCCC1	0.585
O=C1CCc2c(ccc3ccccc23)O1 [Splitomicin]	1.01

Structure (SMILES)	cell viability
O=C(NNS(=O)(=O)c1ccccc1F)c1cc(F)cc(-c2ccccn2)c1	0.916
CCN1CCN(c2cc(-c3ccc(F)cc3)c3c(n2)CCCCCC3)CC1 [Blonanserin]	1.03
COc1cc(N(C)C)cc(CN(C)CCc2ccc([N+](=O)[O-])cc2)c1O [CDC25 Phosphatase Inhibitor I]	1.07
O=C(O)c1ccc(S(=O)(=O)N(Cc2ccc(OC(F)(F)F)cc2)c2ncc(C(F)(F)F)cc2Cl)cc1	0.969
OC[C@H]1O[C@@H](Oc2cc3c(O)cc(O)cc3[o+]c2-c2ccc(O)c(O)c2)[C@H](O)[C@@H](O)[C@@H]1O [Kuromanin chloride]	0.964
COc1cc2ncnc(Nc3cccc(O)c3)c2cc1OC	0.849
COC(=O)Nc1nc2cc(C(=O)c3ccc(F)cc3)ccc2[nH]1 [Flubendazole]	1.16
COc1ccc(COc2cc3oc(=O)c4cc(C(C)O)ccc4c3cc2OC)cc1 (stereo not given) [Palomid 529]	0.906
COC1=C(OC)C(=O)C(C/C=C(\C)CC/C=C(\C)CC/C=C(\C)CC/C=C(\C)CC/C=C(\C)CC/C=C(\C)CC/C=C(\C)CC/C=C(\C)CC/C=C(\C)CCC=C(C)C)=C(C)C1=O [Coenzyme Q10]	0.948
NC1=N[C@@]2(c3cc(NC(=O)c4ccc(F)cn4)ccc3F)COC[C@H]2CS1	1.1
O=C(O)C1=CO[C@@H](O[C@@H]2O[C@H](CO)[C@@H](O)[C@H](O)[C@H]2O)[C@H]2[C@@H]1C=C[C@]2(O)CO [Monotropein]	1.07
COc1ccc2cc1Oc1ccc(cc1)C[C@H]1c3c(cc4c(c3Oc3cc5c(cc3OC)CCN(C)[C@@H]5C2)OCO4)CCN1C [Cepharanthine]	0.999
NCCS [2-Aminoethanethiol]	1.03
CN1C(C(=O)Nc2ccccn2)=C(O)c2ccccc2S1(=O)=O [Piroxicam]	1.02
CN1C(N)=N[C@](C)(c2cc(NC(=O)c3ccc(F)cn3)ccc2F)CS1(=O)=O [Verubecestat]	0.969
COc1c(C)c2c(c(O)c1C/C=C(\C)CCC(=O)OCCN1CCOCC1)C(=O)OC2 [Mycophenolate Mofetil]	1.01
N#CCCCSC(=N)N [Kevetrin hydrochloride]	0.938
COc1cc(C(=O)NC2CCN(C)CC2)ccc1Nc1ncc2c(n1)N(C1CCCC1)CC(F)(F)C(=O)N2C	0.729
O=C(NCc1cccc(O)c1)Nc1nc(-c2ccncc2)cs1	1.21
O=C1CN(CCN2CC(=O)N(CN3CCOCC3)C(=O)C2)CC(=O)N1CN1CCOCC1 [Bimolane]	1.1
Cc1ccc(S(=O)(=O)N2CCCC2c2ccc(F)cc2)cc1 (stereo not given)	0.904
C[C@H]1COC2(CCN(c3nc(=O)c4cc(C(F)(F)F)cc([N+](=O)[O-])c4s3)CC2)O1 (racemic) [BTZ043 Racemate]	1.06
CC1(C)CC(=O)c2c(C(F)(F)F)nn(-c3ccc(C(N)=O)c(N[C@H]4CC[C@H](OC(=O)CN)CC4)c3)c2C1	0.527
CC1(C)[C@@H](O)CC[C@]2(C)[C@H]3C(=O)C=C4[C@@H]5C[C@@](C)(C(=O)O)CC[C@]5(C)CC[C@@]4(C)[C@]3(C)CC[C@@H]12 [Enoxolone]	1.2
O=C(CCCN1CCC(O)(c2ccc(Cl)cc2)CC1)c1ccc(F)cc1 [Haloperidol]	1.13
